Laboratory results as given in the antibiotic and cytotoxicity screens of Wong et al. (2023).
The other results are listed elsewhere or left out.

Assays:
[1] = system: HSkMC (human skeletal muscle cells); test: cytotoxicity call (relative viability < 0.9); settings: 10 µM
[2] = system: HepG2; test: cytotoxicity call (relative viability < 0.9); settings: 10 µM
[3] = system: S. aureus RN4220; test: growth inhibition call (relative growth <= 0.2); settings: 50 µM

SMILES | cytotoxicity call [1] | cytotoxicity call [2] | growth inhibition call [3]
COc1ccc(CN(C)C[C@@H]2Oc3c(NC(=O)CCCCCC(=O)Nc4ccccc4N)cccc3C(=O)N([C@@H](C)CO)C[C@H]2C)cc1 | inactive | inactive | inactive
Cc1ccc(S(=O)(=O)N(C)C[C@@H]2OCCCC[C@@H](C)Oc3ccc(NC(=O)c4ccccc4)cc3C(=O)N([C@H](C)CO)C[C@@H]2C)cc1 | inactive | inactive | inactive
C[C@@H]1CN([C@@H](C)CO)C(=O)c2c(c3ccccc3n2C)-c2ccccc2CO[C@@H]1CN(C)Cc1ccccc1C(F)(F)F | active | inactive | inactive
Cc1cc(C(=O)Nc2cccc3c2O[C@@H](CN(C)C(=O)Nc2ccccc2)[C@@H](C)CN([C@H](C)CO)C3=O)n(C)n1 | inactive | inactive | inactive
CN1CCN(CC#N)C(=O)C12CCN(S(=O)(=O)C1CC1)CC2 | inactive | inactive | inactive
CC(C)NC(=O)Nc1cccc2c1O[C@@H](CN(C)S(=O)(=O)c1cn(C)cn1)[C@@H](C)CN([C@H](C)CO)C2=O | inactive | inactive | inactive
CS(=O)(=O)c1ccc(S(C)(=O)=O)s1 | inactive | inactive | inactive
COC(=O)[C@H](Cc1c[nH]c2ccccc12)NC(=O)[C@H](CCCCCC(=O)[C@@H](C)O)NC(=O)OC(C)(C)C | inactive | inactive | inactive
CCO[C@@H]1OC(C(=O)N2CCN(Cc3ccc4c(c3)OCO4)CC2)=C[C@H](c2ccc(Br)cc2)[C@H]1CCCOC(=O)NCCCCCC(=O)NO | inactive | inactive | inactive
C[C@@H]1CCCCO[C@@H](CN(C)C(=O)NC2CCCCC2)[C@H](C)CN([C@H](C)CO)C(=O)c2cc(NC(=O)C3CCCCC3)ccc2O1 | inactive | inactive | inactive
CC(C)NC(=O)N(C)C[C@@H]1Oc2c(NS(=O)(=O)c3ccc(F)cc3)cccc2C(=O)N([C@H](C)CO)C[C@H]1C | inactive | inactive | inactive
C[C@@H]1CCCCO[C@H](CN(C)C(=O)Nc2ccc(F)cc2)[C@@H](C)CN([C@H](C)CO)C(=O)c2cc(NC(=O)Cc3ccccc3)ccc2O1 | inactive | inactive | inactive
COc1ccc([Si](C)(C)[C@H]2[C@H](CC(=O)N(CCO)Cc3ccccc3)O[C@@]3(C(=O)N(C)c4c(Br)cc(C)cc43)[C@@H]2C)cc1 | inactive | active | inactive
COc1cc2c(cc1OC)CN(C(=O)[C@@H]1[C@H]3C(=O)O[C@H](c4ccccc4)[C@H](c4ccccc4)N3[C@H](c3ccc(OCCO)cc3)[C@@]13C(=O)Nc1ccc(C#CC4=CCCCC4)cc13)CC2 | inactive | inactive | inactive
C[C@H]1CN([C@@H](C)CO)C(=O)Cc2cc(NC(=O)Nc3ccc(C(F)(F)F)cc3)ccc2O[C@H]1CN(C)Cc1ccccc1 | active | active | inactive
COc1ccc(S(=O)(=O)N(C)C[C@H]2Oc3ccc(NS(=O)(=O)c4ccccc4)cc3C(=O)N([C@@H](C)CO)C[C@H]2C)cc1 | inactive | inactive | inactive
C[C@@H]1CN([C@H](C)CO)S(=O)(=O)c2ccc(-c3ccc(C#N)cc3)cc2O[C@H]1CN(C)C(=O)CN(C)C | inactive | inactive | inactive
C[C@@H]1CN([C@@H](C)CO)C(=O)c2cc(NC(=O)NC3CCCCC3)ccc2O[C@@H]1CN(C)C(=O)Nc1cccc2ccccc12 | active | inactive | inactive
CCS(=O)(=O)N1C[C@]2(CN(C2)C(=O)Nc2ccc3c(c2)OCO3)c2c(n(c3cc(ccc23)OC)C)[C@H]1CO | inactive | inactive | inactive
COc1ccccc1S(=O)(=O)N(C)C[C@H]1OCc2cnnn2CCCC(=O)N([C@H](C)CO)C[C@H]1C | inactive | inactive | inactive
COc1c(OC)c2occc2c2oc(=O)ccc12 | inactive | inactive | inactive
C[C@H](CO)N1C[C@H](C)[C@H](CN(C)C(=O)Nc2cccc3ccccc23)Oc2ccc(NC(=O)Nc3cccc4ccccc34)cc2C1=O | inactive | active | inactive
C[C@H](CO)N1C[C@H](C)[C@H](CN(C)C(=O)Nc2ccc3c(c2)OCO3)Oc2ncc(C#CCN(C)C)cc2C1=O | inactive | inactive | inactive
C=CC[C@H](CC(=O)NCCO)C(=O)NC[C@H](OC(=O)[C@H](CC=C)CC(=O)OC(C)(C)C)c1ccccc1 | inactive | inactive | inactive
